Reference: the supplement of paper PMC11417369
This is one part of the list.

The sequences below were run on PfHDP1 homeodomain (GST-tagged) (assay: gcPBM binding intensity (ln(normalized median fluorescence intensity)); higher = stronger DNA binding).
In short: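 Alexa488 anti-GST antibody, scanned at 488 nm, detected GST-tagged P. falciparum DNA-binding domains that had been expressed in E. coli and incubated for 1 h on an Agilent 4 × 180k array. The array carried primer-extended double-stranded 36-bp intergenic genomic probes and negative controls. Binding intensity is the highest Masliner-normalised natural-log median intensity across replicate spots of either orientation of each probe.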

Sequence	gcPBM binding intensity (ln)
AATATAAACAGACACACACACATATAGATTTATATT [CACACA_site7382]	6.8
GAAAATAGAAAAAGCACACATATATTTTGGAATGTA [CACACA_site551]	6.5
TTTTAATGAAAACACACACACACATATATATATATA [CACACA_site5295]	9.23
GGATAGATAATAGGGGGTACAAATATACATACATAT [XGTACX_site5089]	7.73
CTAAATATATAAAAAAGTACAAAATAAATAATAATT [XGTACX_site2442]	6.77
TATTTCTGATTATTTTGTACACATTATATATAATGC [XGTACX_site6990]	6.78
TATATATTATGACCACCACACACCTATACACATAAC [CACACA_site8773]	7.08
ACATATAATAAAAAATGTACACACATAAGAAAATTT [XGTACX_site6153]	6.57
AAAAAAAATATATAAACACACATATTTATATACTCA [CACACA_site4984]	6.27
ACTATAAATATATAAATATATATATATATATATATA [GTGCAC_negctrl_site65]	9.29
TTGTGTGTATGTATACATATATATATTGAGACGAAT [TGCATGCA_negctrl_site382]	7.29
TTTCCATTATGATATAGTACATAAATATATGTAATA [XGTACX_site6992]	6.2
GGAGAATAGTGGAAAACACACACGTTTGAGATATGG [CACACA_site1168]	6.53
CAAAAACGGAAGTGGTGTACCGATATTATATAAACA [XGTACX_site4962]	6.61
TTTTTTTTTTTTACCTGTACATGTCAGCAAACTTTT [XGTACX_site1171]	6.55
AACATTATAAGACACACACACACATATATATATATA [CACACA_site8259]	9.19
ACTCTTAAAATGTATTGTACATAATTTTTACAAGGG [XGTACX_site6611]	6.82
AGGTAGTTCTGTATCACACACATATATATATATATA [CACACA_site2214]	9.41
AATTGTAAATTGGGCACTTATAAAAATGAACAAATA [CACACA_negctrl_site1583]	6.79
TCATAAAGAACAAAGTGTACCTATATATTACATACA [XGTACX_site7595]	6.29
TATAAAACCCTACTGTTTCTTCTTTATTGATATATT [TGCATGCA_negctrl_site285]	6.28
GAAAGAATAAAATAAACATGCAAATAAAACATAAAA [TGCATGCA_site471]	7

Sequence	gcPBM binding intensity (ln)
AAAGTTTTTATACATACACACCTATAAATTAAGTGC [CACACA_site7198]	6.37
TATGTCAATTTTCATACATGCGCATAATCTTTATTT [TGCATGCA_site807]	7.53
ATAAATAAGATACGTACACACATATACAAAATATAC [CACACA_site3661]	6.76
TACTATCTATACAATACACACAAAAAAAAAAAAATA [CACACA_site3981]	6.43
TTATTATCCTATATTTCTTTTCCTTCTTCAAAATTA [CACACA_negctrl_site1314]	6.19
TAAATACACTGTAGCGCACACGGCCAAAAAAAAAAA [CACACA_site1818]	6.72
TAATATCATTTATATTGTACTATAACAAAATCTATA [XGTACX_site7700]	6.02
ATATAAAATAATAAGGGTACAGGTCTCTGCGATGTT [XGTACX_site786]	6.14
TAAAATATTGTTATTACATGCAACCTTATGAAAAAT [TGCATGCA_site706]	6.7
ACTCGCATATTTAAATGTACTTAATTAGAAGAAAAA [XGTACX_site3304]	6.98
AGAATTTTAGATTTAGCACACATTTTTTTTTTTTTT [CACACA_site4081]	7.01
AAAAAAAAAAAAAAAAAAAAAAAAAAAAGTTAAAAA [TGCATGCA_negctrl_site74]	7.29
AAAAAAAAAGATCACACACACATAAATATAAACAAA [CACACA_site5285]	7.03
TGATATTATTATAAGGTGCTTAAAAATAAAGATAAT [GTGCAC_site9539]	6.49
AACAAGAAATAATCACGTACACATTATAATAACTAA [XGTACX_site8184]	6.6
CTTTAATATTTTATTTCACACACATAAATGCCCCAA [CACACA_site8569]	7.06
AAAATTAAAATAGTAATACACACTTCATAGGAAATG [CACACA_site1762]	6.02
ATAATATAAACATACACACACACATATATATATATA [CACACA_site5591]	9.26
ATAAATTGTAAAATGTGTACGCAGATATTGCGTATT [XGTACX_site332]	6.66
TCTATATAATACCAATGTACATAGTTTTAAGCATAA [XGTACX_site1889]	6.7
AGGATATGCAGACACACACACATATAGATTTATATA [CACACA_site7100]	6.6
AAAACAAAAATATAAACACACATACATTGGTTTTCT [CACACA_site5405]	6.17

Sequence	gcPBM binding intensity (ln)
TTTTGTCTTCAAATCAAATGTATATAAAAAAAATAC [CACACA_negctrl_site1717]	6.33
TTTAAAAATTTGATCAAACACACGTTGCATAAATTA [CACACA_site3945]	8.11
TTTTTAACTAACATATCAATTCCATACGTCGTCAAA [CACACA_negctrl_site560]	6.16
ACTTTAATAATTCACTTATTTTCTTATTATATTATT [CACACA_negctrl_site556]	6.78
GGATTTATTTTATATACACACATACCTATATTTATA [CACACA_site7084]	6.84
AACTTGTGTGGATATTGTACTAACAATATGTATGAT [XGTACX_site6302]	7.05
AATAGTGTATAAATTTGTACATATAATTAAAAGGAA [XGTACX_site1143]	6.67
ATTCATAAAAAGAGGTGTACATTAATATAATATATA [XGTACX_site8283]	6.61
TTATTCGAACAAAGGAAAAAATATATTCAAAGGAAA [TGCATGCA_negctrl_site215]	6.45
AATAACTTTTTGAGATGTACATTTTTAATTCGTAGA [XGTACX_site8455]	6.17
TATGCTACATTATATGTACACACATATACATATATA [CACACA_site8199]	6.93
ATTTATACGTAATATGCATAAATATAAATATATATA [XGTACX_negctrl_site133]	6.68
TTTCTTTCTTTCTTTTTTTAAATATTTTTTAAAAAT [TGCATGCA_negctrl_site206]	6.41
TTAAAATTTTAAAAATTTTAATTTTACAAAAAAAAT [TGCATGCA_negctrl_site227]	5.89
ATATAAATAAAAAAAAAAAAAAAAAAAAAAAAAAAA [CACACA_negctrl_site972]	6.02
TATATATAACATTGTACACACAAAGAAATAATATTA [CACACA_site3035]	6.58
AAAAGTATATATTCAGTGCATAGTCTTTAAATATAA [GTGCAC_site9522]	8.54
ATAAGCATCTGGATATGTACTTATTCCTTTAAAGAT [XGTACX_site6225]	6.24
AACAAGTTGCATGGTGCACACATGTATTTATATCTA [CACACA_site5414]	10.1
TATTAAAAATATTATGTACACACATTTTAGATATTT [CACACA_site8549]	6.41
ATAAAAAAGCAACATCATATGTTTTTATAGAGTATT [CACACA_negctrl_site745]	6.19
AAATTAATGAAATATACACACATATATAAATATATA [CACACA_site4378]	6.32

Sequence	gcPBM binding intensity (ln)
AAATTAAAGATAAAAGTGCAAAATTATAAATTTATT	7.86
TTTCGCTTTATTTATGCATGCAAATAAGTTGATATT [TGCATGCA_site724]	6.78
ATTTTTGTAAATACATGTACATATATATGCATATCC [XGTACX_site6353]	7.01
TACATATATACATACACACACATATAACCAATGTAG [CACACA_site2192]	6.94
AGTAATAGTTTGTGCACACTCAAGTATATCATAGAT [CACACA_site6082]	11.1
ATATAAGTGTATCTAACACACAAATATATAAAAATG [CACACA_site1956]	6.53
ATAATTATATGGCTAGCACACAATAAATAATTATAT [CACACA_site3815]	6.56
ACAAGTTAAAATATTACACACATATAAATATTTATA [CACACA_site7467]	6.6
AAGAAAAATATTCGTGTGCACAGAAGTATATGTGTG [GTGCAC_site9814]	11
TATTGTAAGAAAGGCACACAGATAAAATTATTATAT [CACACA_site2921]	6.76
GAGTTAATTTTTTCGTGTACTTGAAAATATTTTTTT [XGTACX_site6392]	6.78
TTACCTTTTTCTAATGGTACACATAAAATATCATTT [XGTACX_site6825]	6.08
TTTTCTTACACGAATTTTAAATTCAATATTAAACAT [CACACA_negctrl_site286]	6.62
GTGGAAATATAACACATTTTTTTTAATAATTATATT [TGCATGCA_negctrl_site522]	5.93
TTAGCAACTATTACTACACACATTTGTATATAACTT [CACACA_site6850]	6.83
ATAGTTTTATATAAATGTACAAATGATTTCAAATAG [XGTACX_site8236]	6.55
AACATGTATATATTATGTACATATGTTAAAATGATA [XGTACX_site6217]	6.81
TAGCGGCGGTATCATGCACACGTATATATTGTAACA [CACACA_site8453]	7.83
CTTAAATTTTTAAATACACACATACACCCATACACA [CACACA_site4461]	7.25
TTTTTTTTAAATATCACACACATATAATATATTCTA [CACACA_site3668]	6.38
AAACCCTATTCAATGCAATAATTTTATAATTTTTTT [TGCATGCA_negctrl_site434]	6.75
